We go through 153 variants from a collection of fitness landscapes (doi:10.1126/science.1257360).

First the molecules themselves.
B1: PhoQ; a variant is named by its letters at X, in order, P23837 (parent)
chain: MKKLLRLFFPLSLRVRFLLATAAVVLVLSLAYGMVALIGYSVSFDKTTFRLLRGESNLFYTLAKWENNKLHVELPENIDKQSPTMTLIYDENGQLLWAQRDVPWLMKMIQPDWLKSNGFHEIEADVNDTSLLLSGDHSIQQQLQEVREDDDDAEMTHSVAVNVYPATSRMPKLTIVVVDTIPVELKSSYMVWSWFIYVLSANLLLVIPLLWVAAWWSLRPIEALAKEVRELEEHNRELLNPATTRELTSLVRNLNRLLKSERERYDKYRTTLTDLTHSLKTPLXXLQXXLRSLRSEKMSVSDAEPVMLEQISRISQQIGYYLHRASMRGGTLLSRELHPVAPLLDNLTSALNKVYQRKGVNISLDISPEISFVGEQNDFVEVMGNVLDNACKYCLEFVEISARQTDEHLYIVVEDDGPGIPLSKREVIFDRGQRVDTLRPGQGVGLAVAREITEQYEGKIVAGESMLGGARMEVIFGRQHSAPKDE

Some of the results follow.

In the assay the parent is B1. In words: enrichment ratio after two sorts for PhoP signalling (ratio (wild type AVST 3.29)); higher = more functional. As to conditions: with PhoP (E. coli).
Regarding LMSH, the enrichment ratio was ≤ 0.25.

Turning to FMAV, the enrichment ratio is ≤ 0.25.

Consider NFQE, for which the enrichment ratio was ≤ 0.25.

As to MSVC, the enrichment ratio turned out to be 4.31.

On to YIQC, for which the enrichment ratio is ≤ 0.25.

For the variant YSYG, the enrichment ratio is ≤ 0.25.

On to GHDD, for which the enrichment ratio is ≤ 0.25.

In the case of KAHL, the enrichment ratio was ≤ 0.25.

On to PGSV, for which the enrichment ratio was ≤ 0.25.

Turning to WSWL, the enrichment ratio was ≤ 0.25.

With ASIM, the enrichment ratio stood at 14.6.

Regarding YFSR, the enrichment ratio is ≤ 0.25.

With QIFV, the enrichment ratio was ≤ 0.25.

Take PCEW: the enrichment ratio is ≤ 0.25.

Regarding NYAD, the enrichment ratio is ≤ 0.25.

With DCWL, the enrichment ratio is ≤ 0.25.

On to MCDV, for which the enrichment ratio was ≤ 0.25.

In the case of LKVR, the enrichment ratio was ≤ 0.25.

On to NMVM, for which the enrichment ratio was ≤ 0.25.

Take HNLL: the enrichment ratio was ≤ 0.25.

As for EPFC, the enrichment ratio is ≤ 0.25.

In the case of YFFF, the enrichment ratio was ≤ 0.25.

Regarding WPGY, the enrichment ratio was ≤ 0.25.

On to YHNG, for which the enrichment ratio was ≤ 0.25.

Turning to RSWV, the enrichment ratio was ≤ 0.25.

In the case of HWLQ, the enrichment ratio was ≤ 0.25.

In the case of RMQQ, the enrichment ratio is ≤ 0.25.

As for SECT, the enrichment ratio came out at 24.6.

As to QEHA, the enrichment ratio was ≤ 0.25.

HIWD: the enrichment ratio was ≤ 0.25.

DQAT: the enrichment ratio was ≤ 0.25.

With PCQG, the enrichment ratio is ≤ 0.25.

For TPCV, the enrichment ratio was ≤ 0.25.

Turning to IPCR, the enrichment ratio is ≤ 0.25.

Regarding YFYQ, the enrichment ratio was ≤ 0.25.

In the case of SCAK, the enrichment ratio is 6.01.

For AQPW, the enrichment ratio is ≤ 0.25.

For YKIG, the enrichment ratio is ≤ 0.25.

Regarding TDFS, the enrichment ratio was found to be 0.74.

Take LQHW: the enrichment ratio was ≤ 0.25.

For LALQ, the enrichment ratio turned out to be 1.26.

Turning to KRRY, the enrichment ratio is ≤ 0.25.

As for PYDN, the enrichment ratio is ≤ 0.25.

On to IIHS, for which the enrichment ratio is ≤ 0.25.

With VQIT, the enrichment ratio was ≤ 0.25.

For MEQY, the enrichment ratio was ≤ 0.25.

In the case of NLTN, the enrichment ratio was ≤ 0.25.

For the variant MVLV, the enrichment ratio was 9.51.

Take STLL: the enrichment ratio turned out to be 16.4.

Turning to PGNF, the enrichment ratio was ≤ 0.25.

Regarding LIGM, the enrichment ratio is ≤ 0.25.

For TNRV, the enrichment ratio is ≤ 0.25.

As to SRME, the enrichment ratio was ≤ 0.25.

As to AMNG, the enrichment ratio was ≤ 0.25.

WFPI: the enrichment ratio is ≤ 0.25.

As for ECYH, the enrichment ratio was ≤ 0.25.

Consider PPNS, for which the enrichment ratio is ≤ 0.25.

In the case of WCHY, the enrichment ratio is ≤ 0.25.

For the variant DVQY, the enrichment ratio is ≤ 0.25.

As for QKVH, the enrichment ratio was ≤ 0.25.

Regarding HFSI, the enrichment ratio was ≤ 0.25.

Consider NQKL, for which the enrichment ratio was ≤ 0.25.

As for LYLT, the enrichment ratio was ≤ 0.25.

With KVEK, the enrichment ratio was ≤ 0.25.

Take AKNN: the enrichment ratio was ≤ 0.25.

With LLEL, the enrichment ratio was ≤ 0.25.

On to YYGM, for which the enrichment ratio is ≤ 0.25.

In the case of VPFH, the enrichment ratio is ≤ 0.25.

For FWFM, the enrichment ratio was ≤ 0.25.

DRCA: the enrichment ratio is ≤ 0.25.

RCQW: the enrichment ratio is ≤ 0.25.

As to LWQA, the enrichment ratio was ≤ 0.25.

For the variant STDM, the enrichment ratio was ≤ 0.25.

In the case of HHKR, the enrichment ratio was ≤ 0.25.

Take QMLN: the enrichment ratio was ≤ 0.25.

WAHY: the enrichment ratio is ≤ 0.25.

For the variant NIEL, the enrichment ratio was ≤ 0.25.

Take FWTQ: the enrichment ratio was ≤ 0.25.

Regarding RYVI, the enrichment ratio is ≤ 0.25.

With ESSS, the enrichment ratio is ≤ 0.25.

In the case of LMWF, the enrichment ratio was ≤ 0.25.

Take SVTF: the enrichment ratio turned out to be 7.48.

For the variant SYHF, the enrichment ratio is ≤ 0.25.

For NSMV, the enrichment ratio is ≤ 0.25.

For PSQV, the enrichment ratio is ≤ 0.25.

Consider QVTI, for which the enrichment ratio is ≤ 0.25.

As for PYFW, the enrichment ratio is ≤ 0.25.

In the case of SRWE, the enrichment ratio is ≤ 0.25.

On to TSHM, for which the enrichment ratio was determined as 9.31.

Take GDSK: the enrichment ratio is ≤ 0.25.

For the variant QGYA, the enrichment ratio was found to be 9.47.

IWVD: the enrichment ratio was ≤ 0.25.

In the case of LDSK, the enrichment ratio was ≤ 0.25.

On to TYAS, for which the enrichment ratio worked out at 2.63.

For the variant PPID, the enrichment ratio was ≤ 0.25.

FHNE: the enrichment ratio is ≤ 0.25.

As to QCLW, the enrichment ratio was ≤ 0.25.

Consider YRGW, for which the enrichment ratio is ≤ 0.25.

Consider HKDL, for which the enrichment ratio was ≤ 0.25.

Turning to HLTY, the enrichment ratio is ≤ 0.25.

Consider MQLN, for which the enrichment ratio is ≤ 0.25.

As for STWT, the enrichment ratio was ≤ 0.25.

As for FLSY, the enrichment ratio was ≤ 0.25.

Consider GTKI, for which the enrichment ratio was ≤ 0.25.

TSLL: the enrichment ratio was 14.

In the case of ISMC, the enrichment ratio turned out to be 3.34.

On to MLKG, for which the enrichment ratio was ≤ 0.25.

In the case of WDKE, the enrichment ratio was ≤ 0.25.

Turning to KYEI, the enrichment ratio is ≤ 0.25.

For the variant LQVD, the enrichment ratio is ≤ 0.25.

Take ERAM: the enrichment ratio is ≤ 0.25.

Turning to DHRH, the enrichment ratio was ≤ 0.25.

For YHKP, the enrichment ratio is ≤ 0.25.

With ELQI, the enrichment ratio was ≤ 0.25.

As to KTDQ, the enrichment ratio is ≤ 0.25.

On to FEKV, for which the enrichment ratio is ≤ 0.25.

Consider LCHV, for which the enrichment ratio is ≤ 0.25.

With EMAS, the enrichment ratio was ≤ 0.25.

PSPD: the enrichment ratio is ≤ 0.25.

Turning to PNRY, the enrichment ratio is ≤ 0.25.

For YLHV, the enrichment ratio was ≤ 0.25.

As for SMCY, the enrichment ratio is 11.6.

SSVS: the enrichment ratio turned out to be 10.6.

For the variant ISQW, the enrichment ratio is ≤ 0.25.

In the case of QKAV, the enrichment ratio was ≤ 0.25.

Take QAHG: the enrichment ratio was ≤ 0.25.

With FGAN, the enrichment ratio was ≤ 0.25.

YNCP: the enrichment ratio was 1.11.

As for VHPF, the enrichment ratio was ≤ 0.25.

HKNC: the enrichment ratio was ≤ 0.25.

Consider SDKP, for which the enrichment ratio is ≤ 0.25.

Turning to VWSH, the enrichment ratio was ≤ 0.25.

On to VGTE, for which the enrichment ratio was ≤ 0.25.

With FYIV, the enrichment ratio was ≤ 0.25.

As to GSRC, the enrichment ratio is ≤ 0.25.

Regarding YIYE, the enrichment ratio is ≤ 0.25.

For STAN, the enrichment ratio stood at 1.11.

For the variant YCYC, the enrichment ratio is ≤ 0.25.

With VSAE, the enrichment ratio was ≤ 0.25.

Take VVHM: the enrichment ratio was ≤ 0.25.

TWQG: the enrichment ratio was ≤ 0.25.

For the variant TAPK, the enrichment ratio is ≤ 0.25.

For the variant MQLL, the enrichment ratio amounted to 6.74.

For HVQF, the enrichment ratio is ≤ 0.25.

PDDQ: the enrichment ratio is ≤ 0.25.

On to FKAN, for which the enrichment ratio is ≤ 0.25.

As to YIIR, the enrichment ratio was ≤ 0.25.

For APFK, the enrichment ratio is ≤ 0.25.

With LSRM, the enrichment ratio was ≤ 0.25.

For ASKF, the enrichment ratio was ≤ 0.25.

Regarding THGM, the enrichment ratio turned out to be 12.3.

Regarding PCSY, the enrichment ratio was ≤ 0.25.

Turning to WCQR, the enrichment ratio is ≤ 0.25.
